Source: the supplement of paper PMC8728848
The list shows a part of the results.

Legend:
Test in all cases: glycan array binding signal (z-score within array); higher = stronger binding
Conditions in all cases: glycan notation: IUPAC condensed, linker removed
[1] = biological target: Neu5Ac(a2-6)Gal(b1-4)GlcNAc(b1-2)Man(a1-3)[GlcNAc(b1-4)][Neu5Ac(a2-6)Gal(b1-4)GlcNAc(b1-2)Man(a1-6)]Man(b1-4)GlcNAc(b1-4)GlcNAc
Method in brief: (§1)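 Glycan array binding is given as a within-array Z-score, which can be read as non-binding when negative. The arrays, 3228 of them, came from the Consortium for Functional Glycomics database and were retained only where the protein sequence was available. Z-scores were averaged across arrays of the same protein sequence at different concentrations or buffers and across linkers.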

[2] = biological target: Neu5Ac(a2-6)Gal(b1-4)GlcNAc(b1-2)Man(a1-3)[Man(a1-6)]Man(b1-4)GlcNAc(b1-4)GlcNAc
Method in brief: as §1

[3] = biological target: Neu5Ac(a2-6)Gal(b1-4)GlcNAc(b1-2)Man(a1-3)[Neu5Ac(a2-3)Gal(b1-4)GlcNAc(b1-2)Man(a1-6)]Man(b1-4)GlcNAc(b1-4)GlcNAc
Method in brief: as §1

[4] = biological target: Neu5Ac(a2-6)Gal(b1-4)GlcNAc(b1-2)Man(a1-3)[Neu5Ac(a2-6)Gal(b1-4)GlcNAc(b1-2)Man(a1-6)]Man(b1-4)GlcNAc(b1-4)GlcNAc
Method in brief: as §1

[5] = biological target: Neu5Ac(a2-6)Gal(b1-4)GlcNAc(b1-2)Man(a1-3)[Neu5Ac(a2-6)Gal(b1-4)GlcNAc(b1-2)Man(a1-6)]Man(b1-4)GlcNAc(b1-4)[Fuc(a1-6)]GlcNAc
Method in brief: as §1

[6] = biological target: Neu5Ac(a2-6)Gal(b1-4)GlcNAc(b1-2)Man(a1-6)Man(b1-4)GlcNAc(b1-4)GlcNAc
Method in brief: as §1

[7] = biological target: Neu5Ac(a2-6)Gal(b1-4)GlcNAc(b1-2)Man(a1-6)[Gal(b1-4)GlcNAc(b1-2)Man(a1-3)]Man(b1-4)GlcNAc(b1-4)GlcNAc
Method in brief: as §1

[8] = biological target: Neu5Ac(a2-6)Gal(b1-4)GlcNAc(b1-2)Man(a1-6)[GlcNAc(b1-2)Man(a1-3)]Man(b1-4)GlcNAc(b1-4)GlcNAc
Method in brief: as §1

[9] = biological target: Neu5Ac(a2-6)Gal(b1-4)GlcNAc(b1-2)Man(a1-6)[Man(a1-3)]Man(b1-4)GlcNAc(b1-4)GlcNAc
Method in brief: as §1

[10] = biological target: Neu5Ac(a2-6)Gal(b1-4)GlcNAc(b1-2)[Neu5Ac(a2-6)Gal(b1-4)GlcNAc(b1-4)]Man(a1-3)[GlcNAc(b1-4)][Neu5Ac(a2-6)Gal(b1-4)GlcNAc(b1-2)[Neu5Ac(a2-6)Gal(b1-4)GlcNAc(b1-6)]Man(a1-6)]Man(b1-4)GlcNAc(b1-4)GlcNAc
Method in brief: as §1

[11] = biological target: Neu5Ac(a2-6)Gal(b1-4)GlcNAc(b1-2)[Neu5Ac(a2-6)Gal(b1-4)GlcNAc(b1-4)]Man(a1-3)[GlcNAc(b1-4)][Neu5Ac(a2-6)Gal(b1-4)GlcNAc(b1-4)Man(a1-6)]Man(b1-4)GlcNAc(b1-4)GlcNAc
Method in brief: as §1

[12] = biological target: Neu5Ac(a2-6)Gal(b1-4)GlcNAc(b1-2)[Neu5Ac(a2-6)Gal(b1-4)GlcNAc(b1-6)]Man(a1-6)[Neu5Ac(a2-6)Gal(b1-4)GlcNAc(b1-2)Man(a1-3)][GlcNAc(b1-4)]Man(b1-4)GlcNAc(b1-4)GlcNAc
Method in brief: as §1

[13] = biological target: Neu5Ac(a2-6)Gal(b1-4)GlcNAc(b1-3)Gal(b1-3)GlcNAc
Method in brief: as §1

[14] = biological target: Neu5Ac(a2-6)Gal(b1-4)GlcNAc(b1-3)Gal(b1-4)GlcNAc
Method in brief: as §1

[15] = biological target: Neu5Ac(a2-6)Gal(b1-4)GlcNAc(b1-3)Gal(b1-4)GlcNAc(b1-2)Man(a1-3)[Neu5Ac(a2-6)Gal(b1-4)GlcNAc(b1-3)Gal(b1-4)GlcNAc(b1-2)Man(a1-6)]GalNAc
Method in brief: as §1

[16] = biological target: Neu5Ac(a2-6)Gal(b1-4)GlcNAc(b1-3)Gal(b1-4)GlcNAc(b1-3)Gal(b1-4)GlcNAc
Method in brief: as §1

[17] = biological target: Neu5Ac(a2-6)Gal(b1-4)GlcNAc(b1-3)Gal(b1-4)GlcNAc(b1-3)Gal(b1-4)GlcNAc(b1-2)Man(a1-3)[Neu5Ac(a2-6)Gal(b1-4)GlcNAc(b1-3)Gal(b1-4)GlcNAc(b1-3)Gal(b1-4)GlcNAc(b1-2)Man(a1-6)]GalNAc
Method in brief: as §1

[18] = biological target: Neu5Ac(a2-6)Gal(b1-4)GlcNAc(b1-3)Gal(b1-4)GlcNAc(b1-3)GalNAc
Method in brief: as §1

[19] = biological target: Neu5Ac(a2-6)Gal(b1-4)GlcNAc(b1-3)Gal(b1-4)GlcNAc(b1-3)[Neu5Ac(a2-6)Gal(b1-4)GlcNAc(b1-3)Gal(b1-4)GlcNAc(b1-6)]GalNAc
Method in brief: as §1

[20] = biological target: Neu5Ac(a2-6)Gal(b1-4)GlcNAc(b1-3)Gal(b1-4)GlcNAc(b1-6)[Gal(b1-3)]GalNAc
Method in brief: as §1

[21] = biological target: Neu5Ac(a2-6)Gal(b1-4)GlcNAc(b1-3)Gal(b1-4)[Fuc(a1-3)]GlcNAc(b1-3)Gal(b1-4)[Fuc(a1-3)]GlcNAc
Method in brief: as §1

[22] = biological target: Neu5Ac(a2-6)Gal(b1-4)GlcNAc(b1-3)GalNAc
Method in brief: as §1

[23] = biological target: Neu5Ac(a2-6)Gal(b1-4)GlcNAc(b1-3)[Neu5Ac(a2-6)Gal(b1-4)GlcNAc(b1-6)]GalNAc
Method in brief: as §1

[24] = biological target: Neu5Ac(a2-6)Gal(b1-4)GlcNAc(b1-6)GalNAc
Method in brief: as §1

[25] = biological target: Neu5Ac(a2-6)Gal(b1-4)GlcNAc(b1-6)[Gal(b1-3)GlcNAc(b1-3)]Gal(b1-4)Glc
Method in brief: as §1

[26] = biological target: Neu5Ac(a2-6)Gal(b1-4)GlcNAc(b1-6)[Gal(b1-3)]GalNAc
Method in brief: as §1

[27] = biological target: Neu5Ac(a2-6)Gal(b1-4)GlcNAc6S
Method in brief: as §1

Neu5Ac(a2-6)GalNAc = biological target: Neu5Ac(a2-6)GalNAc
Method in brief: as §1

[28] = biological target: Neu5Ac(a2-6)GalNAc(b1-4)GlcNAc
Method in brief: as §1

[29] = biological target: Neu5Ac(a2-6)GalNAc(b1-4)GlcNAc6S
Method in brief: as §1

B1: CvGal2 (Crassostrea virginica) (protein)
chain: MGSSHHHHHHSSGLVPRGSHMRIREAGKRKDTTKVYQIPDGLFPGQQVMLRGRVPWGSKSFSINFSATPRMGEGDILFHLNPRPSEGVCIRNALLNGSWGAEEKWQPYFPFDDGRSFSVKIEVTNDAFRTFVNGRPFVDFLHRTDFRAGKYLTLREGAEYYDVIFQSKPNIPLTTAIHNGMRIGKTIRIRGMCTAQDGFAINFNDNRNNIYFHFNARPAQRTVVRNSYFGSWGNEETAISKEFPFYPFLYFYASFVCMEDKFAVYVNDEHFIDFAHRGNPNNISVLQIKGSVNVLDTECLEPMGEDAMTEVDSGLENGDLFVLNGLMTERGKTFAVNFLNGFTENDDIALHFNPRKSTGEVVLNSRYGGAWQSEEKVALPGVFWSNRPLQVKVETKRNKFKIYVNGVDLAKYKIRGNVEDVHAVQVKGDVFLLETLLLKRLMKPVWERLTGGIRPGTWVTLQGTPKKNWQQFVVNFALDDTLDGDIAFHFNVRRGARQVVRNHRQSGAWGREETVTPFFAFDSEATFEIVFFVKEEKFLIYFNGKLFFEFVHRVPVERITHIYMDGDCNFYEPEVVI
**Q.** What does the source list for B1?
**A.** glycan array binding signal (z-score) [1]: -0.325; glycan array binding signal (z-score) [2]: -0.324; glycan array binding signal (z-score) [3]: -0.329; glycan array binding signal (z-score) [4]: -0.305; glycan array binding signal (z-score) [5]: -0.331; glycan array binding signal (z-score) [6]: -0.343; glycan array binding signal (z-score) [7]: -0.343; glycan array binding signal (z-score) [8]: -0.332; glycan array binding signal (z-score) [9]: -0.334; glycan array binding signal (z-score) [10]: -0.336; glycan array binding signal (z-score) [11]: -0.334; glycan array binding signal (z-score) [12]: -0.326; glycan array binding signal (z-score) [13]: -0.282; glycan array binding signal (z-score) [14]: -0.332; glycan array binding signal (z-score) [15]: -0.313; glycan array binding signal (z-score) [16]: -0.322; glycan array binding signal (z-score) [17]: -0.317; glycan array binding signal (z-score) [18]: -0.333; glycan array binding signal (z-score) [19]: -0.323; glycan array binding signal (z-score) [20]: -0.327; glycan array binding signal (z-score) [21]: -0.321; glycan array binding signal (z-score) [22]: -0.329; glycan array binding signal (z-score) [23]: -0.341; glycan array binding signal (z-score) [24]: -0.339; glycan array binding signal (z-score) [25]: -0.133; glycan array binding signal (z-score) [26]: -0.324; glycan array binding signal (z-score) [27]: -0.331; glycan array binding signal (z-score) (Neu5Ac(a2-6)GalNAc): -0.347; glycan array binding signal (z-score) [28]: -0.341; glycan array binding signal (z-score) [29]: -0.331
